Among all 340,000 compounds or so, about 12,000 (3.5%) were called active. This list was built around the results that the source calls inconclusive (neither active nor inactive); the mix of calls is not that of the screen. Calls follow the shape of the dose curve; as a rule, active = well fitted inhibition curve with a large enough effect; inconclusive = small, poorly fitted or top-dose-only effect, or another doubt; inactive = no such curve, though single readings can be large or run the other way. No potency is given beside an inconclusive call; the fits are too rough.
Assay: qHTS Assay for Inhibitors of Hepatitis C Virus (HCV)
Details: Huh7.5.1 HCVcc-Cre (HCVcc is cell-culture hepatitis C virus) infection, luciferase reporter, 44 h; activity change, negative = inhibition: at 41.8 µM (top of the series) unless noted
Outline: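 After 44 h co-culture of compound, cells and HCVcc-Cre (~0.5 moi), substrate is added for 15 min at room temperature and luciferase measured over 15 sec. Cells were seeded at 1,000/well and pre-cultured 4 h.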
% is scaled to controls: 0 for no effect and ±100 for the full control effect; potency is read from the fitted curve at half-maximal effect; tags tell the direction and shape of the fitted curve.

| Structure (SMILES) | Potency | activity change, negative = inhibition |
| --- | --- | --- |
| Cc1ccc(OCC(=O)NNC(=S)NC(=O)C2CCCCC2)c(C)c1 | inconclusive [inhibitor, single point] |  |
| COc1cc(NC(=O)c2ccc3c(c2)S(=O)(=O)N=C2CCCCCN23)cc(OC)c1 | inconclusive [inhibitor, full curve, poor fit] |  |
| c1ccc(CN2c3ccccc3-c3nc4ccccc4n3C2c2ccccn2)cc1 (centres undefined) |  | inactive: 1.09% |
| Cc1ccc(N2CCN(C(=O)C3CCC(=O)N(Cc4ccc(Cl)cc4)C3)CC2)c(C)c1 (centres undefined) | active: 11.2 µM |  |
| O=c1[nH][nH]c2cc(=O)n(-c3cccc(C(F)(F)F)c3)nc12 |  | inactive: -3.95% |
| COc1ccc(NC(=O)c2cc(-c3ccccc3)oc2C)cc1 | inconclusive [inhibitor, single point] |  |
| Cc1ccc(-c2nc(COC(=O)c3c(C)noc3C)cs2)cc1 | inconclusive [inhibitor, partial curve] |  |
| Cc1nn(CC(=O)Nc2ccc(Cl)cc2)c(=O)c2cc(-c3ccccc3)nn12 | inconclusive [inhibitor, partial curve] |  |
| CCc1sc(C(=O)Nc2cccc(C(C)=O)c2)cc1C | inconclusive [inhibitor, full curve] |  |
| CCN(Cc1ccccc1)S(=O)(=O)c1ccc(C(=O)N(CCCN(C)C)c2nc3cc(OC)ccc3s2)cc1 | active: 25.1 µM |  |
| Cn1c(CCNC(=O)c2ccc(F)cc2)nc2ccccc21 | inconclusive [inhibitor, single point] |  |
| OC(c1ccccc1)(C1CCCCC1)C(CN1CCOCC1)c1ccccc1 (centres undefined) | inconclusive [inhibitor, single point] |  |
| Cc1cccc(C)c1NC(=O)CN(C)C(=O)CC1OC(=O)c2ccccc21 (centres undefined) | inconclusive [inhibitor, single point] |  |
| Cc1cc(-c2ccc(S(=O)(=O)N(C)Cc3ccccc3)cc2)on1 |  | inactive: 5.72% |
| Cc1ccc(-n2nnnc2SCC(=O)c2cc(C)n(-c3cc(C)on3)c2C)c(C)c1 | inconclusive [inhibitor, full curve, poor fit] |  |
| O=C(CN1CCCCC1)NNc1nc(-c2ccccc2)c2cc(Cl)ccc2n1 | inconclusive [inhibitor, partial curve] |  |
| OC(CN1CCN(c2cccc(Cl)c2)CC1)C(c1ccccc1)c1ccccc1 (centres undefined) | inconclusive [inhibitor, partial curve, poor fit] |  |
| COC(=O)c1ccc(N/C=C/C(=O)c2ccc(OC)c(OC)c2)cc1 | inconclusive [inhibitor, partial curve] |  |
| CCOC(=O)c1cnc(-n2nc(C)cc2C)nc1NNc1nc(C)cc(C)n1 | inconclusive [inhibitor, single point] |  |
| C=CCn1c2ccccc2c2nnc(SCC(=O)Nc3c(C)n(C)n(-c4ccccc4)c3=O)nc21 | inconclusive [inhibitor, single point] |  |
| COc1ccc(-c2nnc(SCC(=O)c3ccc(C)o3)o2)cc1 | inconclusive [inhibitor, partial curve] |  |
| COc1ccc(-c2cc(C)no2)cc1S(=O)(=O)NCC(C)c1ccccc1 (centres undefined) | inconclusive [inhibitor, single point] |  |
| CC1(C)CC(=O)C2=C(C1)Nc1ccccc1NC2c1ccc(F)c(F)c1 (centres undefined) |  | inactive: 4.7% |

| Structure (SMILES) | Potency | activity change, negative = inhibition |
| --- | --- | --- |
| O=C(CNC(=S)N(Cc1ccccc1)Cc1ccccc1F)NCCc1ccccc1 | inconclusive [inhibitor, single point] |  |
| N#Cc1nc(Cc2cccc3ccccc23)oc1NCc1ccc(F)cc1 | inconclusive [inhibitor, single point] |  |
| COc1cccc(NC(=O)CCSc2ccc3ccccc3n2)c1 |  | inactive: 11.2% |
| COc1ccc(NC(=O)C2CCC(C(C)(C)C)CC2)cc1S(=O)(=O)N1CCCCC1 (centres undefined) |  | inactive: -29.3% |
| CC1=NN(C(N)=S)C(=O)C1N=Nc1ccc(O)cc1 (centres undefined) | inconclusive [inhibitor, partial curve] |  |
| COc1cc2[nH]c(=O)n(CCCCCC(=O)NCCCN3CCOCC3)c(=O)c2cc1OC | inconclusive [inhibitor, partial curve] |  |
| COc1ccc(N(C)S(=O)(=O)c2cccc(C(=O)NC3CCCC(C)C3C)c2)cc1 (centres undefined) | inconclusive [inhibitor, single point] |  |
| CCN(CC)C(=O)c1oc2ccc(S(=O)(=O)N3CC(C)CC(C)C3)cc2c1C (centres undefined) | active: 3.55 µM |  |
| COc1cc(/C=C/C(=O)Nc2cc(S(=O)(=O)N3CCOCC3)ccc2N2CCCC2)cc(OC)c1OC | inconclusive [inhibitor, partial curve] |  |
| O=C(/C=C/c1ccc2c(c1)OCO2)c1c(O)n(CCc2ccccc2)c(=O)[nH]c1=O |  | inactive: 7.57% |
| O=C(c1cc2ccccc2oc1=O)N(Cc1ccc(F)cc1)C1CCS(=O)(=O)C1 (centres undefined) |  | inactive: 10.1% |
| NC(=O)CC(NC(=O)Cc1cccc2ccccc12)c1ccc(NC2CC3CCC2C3)c([N+](=O)[O-])c1 (centres undefined) | active: 11.2 µM |  |
| Cn1c2c(c(=O)n(C)c1=O)C(c1ccc(Br)cc1)C(C#N)=C(N)N2 (centres undefined) |  | inactive: -4.84% |
| COc1ccc(CCn2c(=N)c(C(=O)NCc3ccco3)cc3c(=O)n4ccccc4nc32)cc1OC | inconclusive [inhibitor, partial curve] |  |
| C[C@@H](NC(=O)c1nc[nH]c1C(=O)NCc1ccccc1)c1ccccc1 |  | inactive: 12.2% |
| COc1ccc(CC2=CC(=O)c3ccccc3C2=O)cc1 | active: 22.4 µM |  |
| COc1cc2c(cc1OC)C(c1cc3cc4c(cc3[nH]c1=O)OCO4)N(C(=O)C1CC1)CC2 (centres undefined) |  | inactive: 15.8% |
| CSc1ccc(-c2cc(=O)c3ccccc3o2)cc1 | inconclusive [inhibitor, single point] |  |
| COc1cccc(Cn2cnc3c(sc4nc(C)cc(C)c43)c2=O)c1 | inconclusive [inhibitor, single point] |  |
| Cc1nc(SCC(=O)Nc2nc3ccccc3s2)c(C#N)c(C)c1C | inconclusive [inhibitor, full curve] |  |
| CCOC(=O)c1cccc(NC(=O)CCn2nnc3ccccc32)c1 | inconclusive [inhibitor, single point] |  |
| Cc1ccc(C(=O)N2CCCN(c3nc4cc5c(cc4cc3C#N)OCO5)CC2)cc1 | inconclusive [inhibitor, partial curve] |  |
| CCOc1ccc(OCC)c(NC(=O)CN(c2ccc(OC)cc2)S(=O)(=O)c2c(C)noc2C)c1 | inconclusive [inhibitor, partial curve] |  |

| Structure (SMILES) | Potency | activity change, negative = inhibition |
| --- | --- | --- |
| COc1ccc(NC2CCCN(C(=O)CN3CCOC3=O)C2)cc1 (centres undefined) |  | inactive: 18.3% |
| COc1ccc(CNCc2cccc(Oc3ccccc3)c2)cc1 | inconclusive [inhibitor, partial curve, poor fit] |  |
| O=C(Nc1cccc(Cl)c1)N1CCCC1 | inconclusive [inhibitor, single point] |  |
| COc1ccc(CN2CCN(c3ccccn3)CC2)c(OC)c1C | inconclusive [inhibitor, single point] |  |
| C(=N\NCc1ccccc1)/c1ccc2ncccc2c1 |  | inactive: 6.08% |
| COC1=C(N)C(=O)c2nc(-c3nc(C(=O)O)c(C)c(-c4ccc(OC)c(OC)c4O)c3N)ccc2C1=O | active: 0.316 µM |  |
| CCc1nnc(NC(=O)c2ccc(OCc3c(C)noc3C)c(OC)c2)s1 | inconclusive [inhibitor, partial curve] |  |
| CCN1CCCC1CNC(=O)c1cc(N)ccc1OC (centres undefined) |  | inactive: 14.9% |
| CCSc1nc2c(c(=O)[nH]1)C(c1cccnc1)C(C(=O)OC)=C(C)N2 (centres undefined) |  | inactive: 3.69% |
| O=C(Nc1ccccc1N1CCCCC1)c1cccs1 | inconclusive [inhibitor, partial curve] |  |
| CCCCC1(COC(=O)CCC(=O)O)C(=O)N(c2ccccc2)N(c2ccccc2)C1=O |  | inactive: -1.36% |
| CCC(C)NS(=O)(=O)c1ccc(OCC(=O)NCc2ccc(OC)cc2)cc1 (centres undefined) |  | inactive: -1.41% |
| O=C(CCN1CCCC1)Nc1ccc(Br)cc1 | inconclusive [inhibitor, single point] |  |
| Cc1ccc(Cn2ccc(NC(=O)c3cc(-c4ccc(Br)cc4)on3)n2)cc1 |  | inactive: 1.63% |
| O=C(Nc1ccc2ccccc2c1)C(c1ccccc1)C1CCCC1 (centres undefined) | inconclusive [inhibitor, single point] |  |
| Cc1ccc(-n2nnc(-c3cccnc3Cl)n2)cc1 | inconclusive [inhibitor, single point] |  |
| O=C(CC1Sc2ccccc2NC1=O)OCc1cc(=O)oc2cc(O)ccc12 (centres undefined) | inconclusive [inhibitor, partial curve, poor fit] |  |
| COc1cc(NC(C)CCCN)c2ncccc2c1 (centres undefined) | inconclusive [inhibitor, partial curve] |  |
| O=C(CCc1nc(-c2ccccc2)no1)Nc1cc(C(F)(F)F)ccc1Cl |  | inactive: -21% |
| CCOc1ccccc1C(=O)NC(C(=O)OCC(=O)Nc1nnc(-c2ccccc2)o1)C(C)C (centres undefined) | inconclusive [inhibitor, partial curve] |  |
| Cc1cccc(NC(=O)c2cccc(S(=O)(=O)N3CCCCC3)c2)c1 | inconclusive [inhibitor, partial curve, poor fit] |  |
| COc1ccc(NC(=O)C2C3C=CC4(O3)C2C(=O)N(CCN2CCCCC2C)C4C(=O)NC2CCCC(C)C2C)cc1 (centres undefined) | inconclusive [inhibitor, partial curve] |  |
| COc1ccc(OC)c(NC(=O)CCNC(=O)Cn2cnc3ccccc3c2=O)c1 |  | inactive: -7.94% |

Reference: PubChem BioAssay AID651820 (National Center for Advancing Translational Sciences (NCATS), 2012)
